Here are results for 25 molecules from publication PMC4336329 (PLoS ONE, 2015).

Each structure is given as a SMILES string. About 14,000 (4.5%) of roughly 310,000 compounds showed an effect of 50% or more. The effect is printed as a negative number. Some of the results follow.
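Also: peak tail current of the secondary pulse compared with the same well before compound.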

The target of this assay is human ether-à-go-go-related gene (hERG) potassium channel (human, UniProt Q12809). Description: primary screen, population patch clamp on CHO cells stably expressing hERG.
Sequence of human ether-à-go-go-related gene (hERG) potassium channel (Q12809 whole entry, looked up): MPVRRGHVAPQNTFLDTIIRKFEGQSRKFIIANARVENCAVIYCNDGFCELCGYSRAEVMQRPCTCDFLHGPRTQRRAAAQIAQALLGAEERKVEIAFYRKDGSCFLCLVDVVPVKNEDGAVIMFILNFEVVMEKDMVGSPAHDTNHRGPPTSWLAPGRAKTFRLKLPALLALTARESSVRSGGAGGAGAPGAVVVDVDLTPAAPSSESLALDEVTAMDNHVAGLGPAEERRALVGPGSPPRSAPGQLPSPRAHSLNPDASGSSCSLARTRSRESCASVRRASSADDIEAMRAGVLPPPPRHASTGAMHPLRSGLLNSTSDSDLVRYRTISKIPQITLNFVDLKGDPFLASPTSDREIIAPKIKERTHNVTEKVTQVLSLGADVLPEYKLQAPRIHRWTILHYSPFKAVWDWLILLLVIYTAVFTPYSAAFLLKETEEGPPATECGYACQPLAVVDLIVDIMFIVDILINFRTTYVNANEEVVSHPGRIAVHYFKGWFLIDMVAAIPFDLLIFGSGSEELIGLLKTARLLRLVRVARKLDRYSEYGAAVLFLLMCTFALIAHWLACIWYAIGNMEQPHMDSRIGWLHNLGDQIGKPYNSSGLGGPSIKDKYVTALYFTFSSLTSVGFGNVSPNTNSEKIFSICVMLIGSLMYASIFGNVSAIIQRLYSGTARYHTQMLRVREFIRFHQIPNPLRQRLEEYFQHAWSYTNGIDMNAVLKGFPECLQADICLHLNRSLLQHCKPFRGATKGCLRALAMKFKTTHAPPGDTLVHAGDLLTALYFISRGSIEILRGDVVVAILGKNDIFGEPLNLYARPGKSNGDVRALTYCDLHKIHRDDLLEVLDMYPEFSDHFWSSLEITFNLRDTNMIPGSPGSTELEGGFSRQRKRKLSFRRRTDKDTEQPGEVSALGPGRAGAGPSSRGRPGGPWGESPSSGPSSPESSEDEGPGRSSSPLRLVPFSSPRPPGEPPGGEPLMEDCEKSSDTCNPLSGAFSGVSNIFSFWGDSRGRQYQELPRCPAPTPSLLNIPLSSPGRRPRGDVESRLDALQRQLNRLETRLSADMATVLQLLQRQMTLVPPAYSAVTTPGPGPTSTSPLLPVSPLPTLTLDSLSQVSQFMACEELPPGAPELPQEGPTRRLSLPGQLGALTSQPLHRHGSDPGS
With `Cc1ccc(C(=O)CSc2nc3ccccc3c(=O)[nH]2)cc1`, the “hERG current change (%, negative = inhibition) at 10uM” value is reported as -10.9%.

`O=C(C[n+]1cc(-c2ccccc2)n2c1CCC2)OCc1ccccc1.[Br-]`: the “hERG current change (%, negative = inhibition) at 10uM” value is -15.2%.

`C=CCSC1=N/C(=C\c2ccc3c(c2)OCO3)C(=O)S1`: the “hERG current change (%, negative = inhibition) at 10uM” value was found to be 4.4%.

As for `COc1ccccc1N1CCN(S(=O)(=O)c2ccc3c4c(cccc24)C(=O)N3)CC1`, the “hERG current change (%, negative = inhibition) at 10uM” value is recorded as -11.8%.

In the case of `O=C(/C=C/c1ccco1)NCC(=O)N/N=C/c1ccccc1[N+](=O)[O-]`, the “hERG current change (%, negative = inhibition) at 10uM” value is recorded as -23.1%.

As for `CCCCCC(=O)NC(=S)NC1C2CC3CC(C2)CC1C3` (stereo not shown), the “hERG current change (%, negative = inhibition) at 10uM” value worked out at 11.2%.

In the case of `Clc1ccccc1C1=Nn2c(nnc2-c2ccco2)SC1`, the “hERG current change (%, negative = inhibition) at 10uM” value is on record as -25.4%.

With `COc1cc(/C=C(\C#N)C(=O)NCC2CCCO2)ccc1OC(C)C` (stereo not shown), the “hERG current change (%, negative = inhibition) at 10uM” value amounted to 4.21%.

Regarding `Cc1cc(C)nc(NS(=O)(=O)c2ccc(NC(=O)c3ccc(S(=O)(=O)N(C)C)cc3)cc2)n1`, the “hERG current change (%, negative = inhibition) at 10uM” value is on record as 13.2%.

On to `CC(O)[C@H](NC(=O)C1(c2ccccc2)CCN(C(=O)OC(C)(C)C)CC1)C(=O)O` (stereo partly shown), for which the “hERG current change (%, negative = inhibition) at 10uM” value worked out at 8.23%.

Regarding `CCOC(=O)c1cc(-c2ccc(Cl)s2)[nH]n1`, the “hERG current change (%, negative = inhibition) at 10uM” value is reported as -5.26%.

Regarding `COc1ccc(S(=O)(=O)/N=C2/NC(=O)/C(=C\c3ccco3)S2)cc1`, the “hERG current change (%, negative = inhibition) at 10uM” value was -2.98%.

`COc1cc(C(c2nnnn2C(C)(C)C)N2CCN(C)CC2)cc(OC)c1OC` (stereo not shown): the “hERG current change (%, negative = inhibition) at 10uM” value came to 6.02%.

For `Cc1ccc(S(=O)(=O)Nc2ccc(C(=O)NCCCn3ccnc3)cc2)cc1[N+](=O)[O-]`, the “hERG current change (%, negative = inhibition) at 10uM” value is listed as -12.7%.

In the case of `CCOc1ccccc1NC(=S)Nc1ncccc1C`, the “hERG current change (%, negative = inhibition) at 10uM” value is on record as -0.779%.

With `CCOC(=O)CCSCC(=O)Nc1cc(C)on1`, the “hERG current change (%, negative = inhibition) at 10uM” value is on record as -3.91%.

`O=C(CSCc1cccc(Cl)c1)NCc1ccc2c(c1)OCO2`: the “hERG current change (%, negative = inhibition) at 10uM” value is -22.6%.

`N#Cc1nc(-c2ccco2)oc1NCc1ccccc1Cl`: the “hERG current change (%, negative = inhibition) at 10uM” value turned out to be 10.4%.

`O=C(NCc1ccco1)c1ccc(Cl)c(S(=O)(=O)N2CCc3ccccc32)c1`: the “hERG current change (%, negative = inhibition) at 10uM” value is on record as -20.6%.

Consider `CC(=O)c1c[nH]c(C(=O)NC2CCCCCC2)c1`, for which the “hERG current change (%, negative = inhibition) at 10uM” value is reported as 1.09%.

As to `C=C1C(=O)O[C@@H]2[C@H]1CC[C@H](C)[C@]1(O)CCC(=O)[C@@]21C`, the “hERG current change (%, negative = inhibition) at 10uM” value worked out at 27.4%.

In the case of `Nc1nnc(SCc2coc(-c3ccc(Cl)cc3)n2)s1`, the “hERG current change (%, negative = inhibition) at 10uM” value is 18.4%.

For the molecule `O=C(Nc1ccccc1C(=O)NCc1ccccc1)c1ccccc1`, the “hERG current change (%, negative = inhibition) at 10uM” value came out at 3.65%.

For `O=[N+]([O-])c1ccc(N2CCc3ccccc3C2)cc1`, the “hERG current change (%, negative = inhibition) at 10uM” value is reported as -20.7%.

Regarding `CNC(=O)C(C)c1ncc(C(F)(F)F)cc1Cl` (stereo not shown), the “hERG current change (%, negative = inhibition) at 10uM” value is 17.6%.
